Source: PubChem BioAssay AID504332 (National Center for Advancing Translational Sciences (NCATS), 2011)
Screen size: about 350,000 compounds; about 31,000 (8.9%) were called active. Inconclusive means that the source gave no clear call. Such entries were picked first, then a sample of the others. Calls follow the shape of the dose curve; as a rule, active = well fitted inhibition curve with a large enough effect; inconclusive = small, poorly fitted or top-dose-only effect; inactive = no such curve, though single readings can be large or run the other way. Potencies of inconclusive entries are doubtful fits and often do not repeat.

target: Histone-lysine N-methyltransferase EHMT2 (Homo sapiens) (UniProt Q96KQ7); assay: qHTS Assay for Inhibitors of Histone Lysine Methyltransferase G9a; conditions: G9a H3K9 monomethylation, AlphaScreen, 2 h; activity, negative = inhibition: at 59 µM (top of the series) unless noted; also: nearly all actives have a fitted effect of over 75% in size
UniProt Q96KQ7, sequence (Q96KQ7 whole entry, looked up): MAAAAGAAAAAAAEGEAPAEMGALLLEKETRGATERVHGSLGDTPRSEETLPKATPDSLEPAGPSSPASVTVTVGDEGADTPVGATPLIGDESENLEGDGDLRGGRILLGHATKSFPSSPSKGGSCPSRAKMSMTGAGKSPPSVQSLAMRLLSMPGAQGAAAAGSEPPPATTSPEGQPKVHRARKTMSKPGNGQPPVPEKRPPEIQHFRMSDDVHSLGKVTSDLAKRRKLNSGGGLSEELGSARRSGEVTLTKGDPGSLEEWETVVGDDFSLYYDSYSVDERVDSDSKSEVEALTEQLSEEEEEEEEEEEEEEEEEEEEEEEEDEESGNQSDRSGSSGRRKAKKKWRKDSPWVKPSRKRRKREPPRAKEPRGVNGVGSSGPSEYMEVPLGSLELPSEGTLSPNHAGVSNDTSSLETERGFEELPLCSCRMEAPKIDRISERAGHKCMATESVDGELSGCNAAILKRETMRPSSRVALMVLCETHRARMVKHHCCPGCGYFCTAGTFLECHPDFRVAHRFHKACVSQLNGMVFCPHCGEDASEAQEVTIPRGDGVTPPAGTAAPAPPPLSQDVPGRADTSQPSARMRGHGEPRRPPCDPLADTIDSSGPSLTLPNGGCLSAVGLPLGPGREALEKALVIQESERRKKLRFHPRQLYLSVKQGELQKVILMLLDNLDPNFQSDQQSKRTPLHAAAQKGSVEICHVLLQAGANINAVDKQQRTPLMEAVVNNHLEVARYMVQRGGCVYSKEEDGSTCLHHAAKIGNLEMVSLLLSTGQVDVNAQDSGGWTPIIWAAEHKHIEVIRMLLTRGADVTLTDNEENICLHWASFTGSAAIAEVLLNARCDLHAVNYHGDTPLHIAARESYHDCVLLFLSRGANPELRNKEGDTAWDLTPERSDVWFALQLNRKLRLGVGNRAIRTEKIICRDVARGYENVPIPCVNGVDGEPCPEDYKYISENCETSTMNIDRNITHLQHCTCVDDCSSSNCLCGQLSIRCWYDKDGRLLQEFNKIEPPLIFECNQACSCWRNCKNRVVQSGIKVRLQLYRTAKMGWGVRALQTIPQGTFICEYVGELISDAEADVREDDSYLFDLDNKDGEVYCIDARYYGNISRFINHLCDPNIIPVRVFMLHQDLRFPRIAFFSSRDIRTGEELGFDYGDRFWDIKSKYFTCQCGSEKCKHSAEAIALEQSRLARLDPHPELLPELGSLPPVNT
How it was run: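 G9a (20 nM) preincubated 15 min RT with compounds, then 500 nM biotinylated H3K9 peptide and 20 uM SAM added; 2 h RT reaction. Monomethyl-H3K9 product detected by AlphaScreen with anti-H3K9me1 antibody, streptavidin donor and anti-rabbit IgG acceptor beads.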
% is scaled to controls: 0 for no effect and ±100 for the full control effect; potency is read from the fitted curve at half-maximal effect; tags tell the direction and shape of the fitted curve.

Which Potency does the source give for `O=C(NCC1OCCc2ccccc21)c1ccc(NC(=O)c2cccc(Br)c2)cc1` (stereo not drawn) here?
The Potency was inconclusive: 89.1 µM [inhibitor, single point].

For `CCN(CC)c1ccc(/C=N/NC(=O)CNC(=O)c2ccc3c(c2)OCCO3)cc1`, which Potency is on record?
Its Potency is active: 44.7 µM.

Which Potency does the source give for `CCN(CC)S(=O)(=O)c1cc(C(=O)OC(C)C(=O)NCc2ccco2)ccc1C` (stereo not drawn) here?
The Potency was inconclusive: 4.47 µM [inhibitor, single point].

How did the activity, negative = inhibition turn out when `CCOc1cc2[nH]c(=S)n(Cc3ccc(C)o3)c(=O)c2cc1OCC` was run?
Its activity, negative = inhibition is inactive: 12.5% [at 12.7 µM].

With `O=C(Nc1ccc(N2CCOCC2)cc1)c1cnsn1` as the compound, how does the Potency read?
The Potency was inconclusive: 5.01 µM [inhibitor, full curve, poor fit].

How did the Potency turn out when `Cn1cnc(S(=O)(=O)Nc2ccccc2N2CCOCC2)c1` was run?
Its Potency is “inactive”.

How did the Potency turn out when `O=[N+]([O-])c1ccc(N2CCN(Cc3ccc(Br)o3)CC2)cc1` was run?
Its Potency is inconclusive: 25.1 µM [inhibitor, single point].

With `O=C(CSc1nc2ccccc2c(=O)n1CCCN1CCOCC1)NC12CC3CC(CC(C3)C1)C2` as the compound, how does the Potency read?
Its Potency is inconclusive: 1 µM [inhibitor, full curve, poor fit].

Which Potency does the source give for `COCCOC(=O)C1=C(C)N=C2SCCC(=O)N2C1c1ccc(OC(=O)c2ccco2)cc1` (stereo not drawn) here?
The Potency was “inactive”.

With `CC(CNCc1ccc2c(c1)OCO2)NCc1ccc2c(c1)OCO2` (stereo not drawn) as the compound, how does the Potency read?
The Potency was inconclusive: 79.4 µM [inhibitor, single point].

With `C/C(N)=C(/C#N)C(=O)CSc1nc2ccc(C)cc2[nH]1` as the compound, how does the Potency read?
The Potency was active: 15.8 µM.

`Cc1ccc(N2C(=O)C3C4C=CC(CC4)C3C2=O)c([N+](=O)[O-])c1` (stereo not drawn) was tested. Which Potency did it give?
Its Potency is inconclusive: 89.1 µM [inhibitor, single point].

With `CCc1nn(CCCC(=O)N2CCN(c3ccc(OC)cc3)CC2)c(=O)c2cc3occc3n12` as the compound, how does the Potency read?
Its Potency is inconclusive: 44.7 µM [inhibitor, partial curve, poor fit].

`N=C1/C(=C/c2ccc(Br)o2)C(=O)N=C2SC(CC(=O)N3CCCC3)=NN12` was tested. Which Potency did it give?
The Potency was inconclusive: 39.8 µM [inhibitor, single point].

How did the Potency turn out when `Clc1ccc(Cl)c(OCCCCN2CCNCC2)c1` was run?
Its Potency is inconclusive: 89.1 µM [inhibitor, single point].

For `CCOC(=O)c1ccc(N2C(=O)CC(N3CCN(C(=O)c4ccco4)CC3)C2=O)cc1` (stereo not drawn), which Potency is on record?
The Potency was inconclusive: 89.1 µM [inhibitor, single point].

`CCCCCCn1cnc2c(c1=O)c1nc3ccccc3nc1n2/N=C/c1ccco1` was tested. Which Potency did it give?
Its Potency is inconclusive: 89.1 µM [inhibitor, single point].

For `CC(Nc1nc(Nc2ccc(F)cc2)nc(SCC(N)=O)n1)c1ccccc1` (stereo not drawn), which activity, negative = inhibition is on record?
The activity, negative = inhibition was inactive: 20.7% [at 0.501 µM].

With `CC(C)CC(=O)NNC(=S)Nc1ccc(S(N)(=O)=O)cc1` as the compound, how does the Potency read?
The Potency was active: 5.62 µM.

`O=C(CC1CC2CCC1C2)NC1CCCCCCC1` (stereo not drawn) was tested. Which Potency did it give?
Its Potency is “inactive”.

For `O=C(/C=C/c1ccccc1)Nc1nnc(-c2ccco2)o1`, which Potency is on record?
The Potency was “inactive”.

`O=C(NCc1ccc(F)cc1)C(Cc1ccccc1)NS(=O)(=O)c1cccs1` (stereo not drawn) was tested. Which Potency did it give?
Its Potency is “inactive”.

How did the Potency turn out when `Cc1ccc2ncccc2c1NS(=O)(=O)c1ccccc1` was run?
The Potency was inconclusive: 2.82 µM [inhibitor, partial curve, poor fit].

For `CCOc1cc(/C=N/Nc2nnc(C)n2N)ccc1OC(C)=O`, which Potency is on record?
Its Potency is active: 44.7 µM.

For `CC(CCc1ccccc1)NC(=O)CSc1nccc(=O)[nH]1` (stereo not drawn), which Potency is on record?
The Potency was inconclusive: 79.4 µM [inhibitor, single point].

How did the Potency turn out when `Cc1ccnc(NS(=O)(=O)c2ccc(NC(=O)CCc3ccccc3)cc2)n1` was run?
Its Potency is inconclusive: 79.4 µM [inhibitor, single point].

Which Potency does the source give for `Cc1cccc(N2CCN(C(=O)Cn3ncc4c3-c3ccccc3OC4)CC2)c1C` here?
Its Potency is inconclusive: 31.6 µM [inhibitor, partial curve, poor fit].

`Cc1ccc(OCC(=O)NCCNC(=O)c2ccncc2)cc1` was tested. Which Potency did it give?
The Potency was “inactive”.

How did the Potency turn out when `CCNC(=S)NNC(=O)c1cc(Br)cs1` was run?
The Potency was inconclusive: 79.4 µM [inhibitor, single point].

`CCC(C)N(C)C1CCN(C(=S)Nc2cccc(OC)c2)CC1` (stereo not drawn) was tested. Which Potency did it give?
Its Potency is inconclusive: 39.8 µM [inhibitor, partial curve, poor fit].

With `CSCC[C@H](NC(=O)c1ccc(Cl)c(S(=O)(=O)N2CCCC2)c1)c1nc2ccccc2[nH]1` as the compound, how does the Potency read?
Its Potency is active: 35.5 µM.

Which Potency does the source give for `COc1nccnc1NS(=O)(=O)c1ccc(NC(=S)NC(=O)c2ccc(F)cc2)cc1` here?
Its Potency is inconclusive: 79.4 µM [inhibitor, single point].

`CC1(C)O[C@@H]2C[C@H]3[C@H]4C[C@H](F)C5=CC(=O)C=C[C@@]5(C)[C@@H]4[C@H](O)C[C@]3(C)[C@]2(C(=O)CO)O1` was tested. Which Potency did it give?
The Potency was “inactive”.

With `Cc1ccc(CNc2ccc3c(c2)ncn3C(C)(C)C)cc1` as the compound, how does the Potency read?
Its Potency is active: 7.08 µM.

How did the Potency turn out when `CCCCC[n+]1ccn(-c2nc3ccccc3nc2[N-]S(=O)(=O)c2ccccc2)c1` was run?
Its Potency is “inactive”.

For `COc1ccccc1OCC(=O)NCC1CCCCC1`, which Potency is on record?
Its Potency is inconclusive: 35.5 µM [inhibitor, partial curve, poor fit].

`COc1ccc(OC)c(S(=O)(=O)N2CCN(c3ccccc3)CC2)c1` was tested. Which Potency did it give?
Its Potency is “inactive”.

With `COc1ccc2nc(N=NC3=C(O)CC(C)(C)CC3=O)sc2c1` as the compound, how does the Potency read?
The Potency was inconclusive: 63.1 µM [inhibitor, partial curve, poor fit].

Which activity, negative = inhibition does the source give for `O=C(CCN1C(=O)c2ccccc2C1=O)N(CCO)Cc1ccccc1` here?
Its activity, negative = inhibition is inactive: 8.46% [at 12.7 µM].

With `COC(=O)c1cccc(NC(=O)C23CC4CC(C2)CC(n2cncn2)(C4)C3)c1` as the compound, how does the Potency read?
The Potency was inconclusive: 25.1 µM [inhibitor, single point].

`O=C(N/C(=C/c1cccs1)C(=O)N1CCCCCC1)c1ccccc1` was tested. Which Potency did it give?
Its Potency is inconclusive: 22.4 µM [inhibitor, single point].

Which activity, negative = inhibition does the source give for `CCOC(=O)Cn1nc(C)n(-c2ccc(Br)cc2)c1=O` here?
Its activity, negative = inhibition is inconclusive: -57.3% [inhibitor].

`COCCN(C(=O)CSc1n[nH]c(-c2ccc(OC)cc2)n1)c1c(N)n(Cc2ccccc2)c(=O)[nH]c1=O` was tested. Which Potency did it give?
The Potency was inconclusive: 56.2 µM [inhibitor, partial curve, poor fit].

Which Potency does the source give for `N#Cc1ccccc1Cn1c(SCC(=O)Nc2ccc(F)cc2)nc2ccccc21` here?
The Potency was “inactive”.

For `CCOc1cc(N2CCOCC2)c(OCC)cc1NC(=O)COC(=O)CCn1c(C)csc1=O`, which Potency is on record?
Its Potency is inconclusive: 50.1 µM [inhibitor, partial curve].

`CCc1ccc(NC(=O)C(=O)c2ccccc2NC(C)=O)cc1` was tested. Which Potency did it give?
The Potency was inconclusive: 3.55 µM [inhibitor, single point].

Which Potency does the source give for `Cn1c(C(=O)NCCN2CCOCC2)cc2c(=O)n(C)c3ccccc3c21` here?
The Potency was inconclusive: 89.1 µM [inhibitor, single point].

With `O=C(NC(=S)Nc1ncccn1)c1ccc(Cl)cc1Cl` as the compound, how does the Potency read?
Its Potency is inconclusive: 44.7 µM [inhibitor, partial curve].

With `CSc1ccc(CNc2cccc3ccccc23)cc1` as the compound, how does the Potency read?
Its Potency is inconclusive: 6.31 µM [inhibitor, single point].

For `CCOc1ccc(C2C(C(=O)c3ccc(C)o3)=C(O)C(=O)N2CCCN(CC)CC)cc1` (stereo not drawn), which activity, negative = inhibition is on record?
The activity, negative = inhibition was inconclusive: -82.5% [inhibitor].

For `O=C(NCc1ccco1)c1ccc(Oc2ccccc2)cc1`, which Potency is on record?
The Potency was inconclusive: 70.8 µM [inhibitor, single point].

With `CCCc1nc(SCC(=O)N2CCC(C)CC2)c2c(=O)n(C)c(=O)n(C)c2n1` as the compound, how does the Potency read?
The Potency was inconclusive: 89.1 µM [inhibitor, partial curve, poor fit].

How did the Potency turn out when `CCCCCCOC(=O)Nc1ccc(S(=O)(=O)Nc2cccc([N+](=O)[O-])c2)cc1` was run?
Its Potency is inconclusive: 3.98 µM [inhibitor, partial curve].

`Cc1c(Cl)cccc1NC(=O)c1cc2sccc2n1Cc1ccc(F)cc1` was tested. Which Potency did it give?
The Potency was “inactive”.

With `CC(C)Cn1c(N)c(C(=O)CSc2nc3ncc(Cl)cc3[nH]2)c(=O)n(C)c1=O` as the compound, how does the Potency read?
Its Potency is active: 28.2 µM.

With `COC(=O)COC(=O)CC(CC(N)=O)c1ccccc1` (stereo not drawn) as the compound, how does the Potency read?
The Potency was inconclusive: 89.1 µM [inhibitor, single point].

Which Potency does the source give for `CCCCOc1ccc(C(O)C(CN2CCOCC2)c2ccccc2)cc1` (stereo not drawn) here?
The Potency was inconclusive: 79.4 µM [inhibitor, partial curve, poor fit].

How did the Potency turn out when `CCOc1ccc(-n2c(Cc3cc(=O)[nH]c(=O)[nH]3)nnc2SCC(N)=O)cc1` was run?
Its Potency is active: 44.7 µM.

Which Potency does the source give for `Cc1ccc(-c2noc(-c3ccc(N4CCCCC4C)c([N+](=O)[O-])c3)n2)cc1` (stereo not drawn) here?
The Potency was “inactive”.

For `CCc1cccc(CC)c1NC(=O)c1cccc(S(=O)(=O)N2CCN(C)CC2)c1`, which Potency is on record?
Its Potency is active: 10 µM.

Which Potency does the source give for `CC1(c2cccc(Br)c2)NC(=O)N(CC(=O)N2CCN(C(=O)c3ccco3)CC2)C1=O` (stereo not drawn) here?
The Potency was inconclusive: 35.5 µM [inhibitor, single point].

For `O=[N+]([O-])c1cccc(/C=N/Nc2nc(NCc3ccccc3)nc(N3CCOCC3)n2)c1O`, which Potency is on record?
Its Potency is inconclusive: 14.1 µM [inhibitor, partial curve, poor fit].

For `O=C(CSC1=NC(=O)C(Cc2ccccc2)C(=O)N1)Nc1ncccn1` (stereo not drawn), which Potency is on record?
Its Potency is active: 79.4 µM.

For `O=C(COC(=O)c1ccc[n+]([O-])c1)Nc1c(Br)cc([N+](=O)[O-])cc1Br`, which Potency is on record?
Its Potency is inconclusive: 79.4 µM [inhibitor, partial curve, poor fit].

With `COc1ccc(NS(=O)(=O)c2ccc(OCC(=O)N3CCCC3)cc2)cc1` as the compound, how does the Potency read?
Its Potency is inconclusive: 44.7 µM [inhibitor, partial curve, poor fit].

With `CCOC(=O)c1ccc[n+](C(C)C(=O)c2ccc(-c3ccccc3)cc2)c1` (stereo not drawn) as the compound, how does the Potency read?
The Potency was inconclusive: 7.94 µM [inhibitor, full curve, poor fit].

How did the Potency turn out when `Cc1ccc(-c2csc(CC(N)=O)n2)cc1` was run?
Its Potency is “inactive”.

For `CC(OC(=O)c1ccccc1Br)C(=O)Nc1nc(-c2cccc([N+](=O)[O-])c2)cs1` (stereo not drawn), which Potency is on record?
The Potency was inconclusive: 70.8 µM [inhibitor, partial curve, poor fit].
